Data from the supplement of paper PMC4604168 (melanoma cell lines).
The other results are listed elsewhere or left out. Single values are uncertain, as repeats are few or missing.

Experiments:
Assay in all cases: cell count relative to DMSO control; melanoma cells; higher = more viable cells
Conditions in all cases: library dose: standard library concentration; 72 h
G361 = test system: G361
IPC-298 = test system: IPC-298
IST-MEL1 = test system: IST-MEL1
LB2518-MEL = test system: LB2518-MEL
LOXIMVI = test system: LOXIMVI
MEL-HO = test system: MEL-HO
MZ2-MEL = test system: MZ2-MEL
MeWo = test system: MeWo
RPMI7951 = test system: RPMI7951
RVH-421 = test system: RVH-421
SkMel28 = test system: SkMel28
SkMel2 = test system: SkMel2
SkMel30 = test system: SkMel30
SkMel5 = test system: SkMel5
UACC257 = test system: UACC257
UACC62 = test system: UACC62
WM115 = test system: WM115
WM1716 = test system: WM1716
WM3526 = test system: WM3526
WM1745 = test system: WM1745
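Further: cells treated in 1,536-well plates, then fixed and DAPI-stained, with nuclei counted from automated high-throughput microscope images.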

Row | SMILES | cell count (G361) [%] | cell count (IPC-298) [%] | cell count (IST-MEL1) [%] | cell count (LB2518-MEL) [%] | cell count (LOXIMVI) [%] | cell count (MEL-HO) [%] | cell count (MZ2-MEL) [%] | cell count (MeWo) [%] | cell count (RPMI7951) [%] | cell count (RVH-421) [%] | cell count (SkMel28) [%] | cell count (SkMel2) [%] | cell count (SkMel30) [%] | cell count (SkMel5) [%] | cell count (UACC257) [%] | cell count (UACC62) [%] | cell count (WM115) [%] | cell count (WM1716) [%] | cell count (WM3526) [%] | cell count (WM1745) [%]
1 | CC(=O)O[C@@]12CO[C@@H]1C[C@H](O)[C@@]1(C)C(=O)[C@H](O)C3=C(C)[C@@H](OC(=O)[C@H](O)[C@@H](NC(=O)OC(C)(C)C)c4ccccc4)C[C@@](O)([C@@H](OC(=O)c4ccccc4)[C@H]21)C3(C)C [Docetaxel] + Cn1cc(/C=C2\C(=O)Nc3cccnc32)c2ccccc21 [GW441756] (first compound 0.0005 µM, partner dose 2 µM) | 16.1 | 38.7 | 39.5 | 39 | 79.4 | 48.6 | 40.9 | 25.7 | 25.5 | 65.7 | 15.9 | 16.1 | 35.8 | 33.3 | 57.1 | 44 | 32 | 38.9 | 38.1 | –
2 | Nc1ncn([C@H]2C[C@H](O)[C@@H](CO)O2)c(=O)n1 [decitabine] + O=S(=O)(c1ccccc1)N(CC(F)(F)F)c1ccc(C(O)(C(F)(F)F)C(F)(F)F)cc1 [T0901317] (first compound 0.5 µM, partner dose 7 µM) | 77.8 | 45 | 73.3 | 96.6 | 97.8 | 68.8 | 73.1 | 55.7 | 68.5 | 78.9 | 67.6 | 93.4 | 95 | 57.6 | 75.6 | 73.3 | 70.3 | 69.6 | 83.7 | –
3 | Nc1ncn([C@H]2C[C@H](O)[C@@H](CO)O2)c(=O)n1 [decitabine] + CCc1ccc(CCOc2ccc(CC3SC(=O)NC3=O)cc2)nc1 [pioglitazone] (first compound 0.5 µM, partner dose 10 µM) | 79.8 | 58.9 | 82.1 | 79.4 | 69.4 | 80.7 | 89.9 | 59.9 | 56.6 | 75.4 | 120 | 96.7 | 84.2 | 75.2 | 98.2 | 67.4 | 73.7 | 69.9 | 93.1 | –
4 | Nc1nc(F)nc2c1ncn2[C@@H]1O[C@H](CO)[C@@H](O)[C@@H]1O [fludarabine] + N#Cc1c(O)c2c(-c3ccc(-c4ccccc4O)cc3)csc2[nH]c1=O [A769662] (first compound 1 µM, partner dose 10 µM) | 90.8 | 79.9 | 73.6 | 104 | 106 | 69.6 | 105 | 86.2 | 75 | 94 | 3.77 | 2.49 | 19.8 | 24.2 | 18.4 | 80.8 | 90.5 | 95.4 | 24.6 | –
5 | Nc1nc(F)nc2c1ncn2[C@@H]1O[C@H](CO)[C@@H](O)[C@@H]1O [fludarabine] + COC(=O)c1sccc1S(=O)(=O)Nc1ccc(Nc2ccccc2)cc1OC [GSK0660] (first compound 1 µM, partner dose 5 µM) | 84.1 | 65.2 | 74.6 | 76.1 | 112 | 78.3 | 90.5 | 98.6 | 66.3 | 89.5 | 1.28 | 2.11 | 16.9 | 19.5 | 34.5 | 95.9 | 85.4 | 92.5 | 26.5 | –
6 | Nc1ccn([C@@H]2O[C@H](CO)[C@@H](O)C2(F)F)c(=O)n1 [gemcitabine] + CCCCCCCCCCCC1=C(O)C(=O)C=C(O)C1=O [Embelin] (first compound 0.002 µM, partner dose 6 µM) | 40.1 | 30.7 | 32.4 | 55.3 | 87.6 | 56.7 | 66.9 | 56.2 | 67.7 | 49.2 | 93.6 | 90.8 | 123 | 106 | 94.4 | 87.6 | 80.4 | 61.3 | 114 | –
7 | CC(=O)c1c(C)c2cnc(Nc3ccc(N4CCNCC4)cn3)nc2n(C2CCCC2)c1=O [palbociclib] + Cn1cc(/C=C2\C(=O)Nc3cccnc32)c2ccccc21 [GW441756] (first compound 0.2 µM, partner dose 2 µM) | 77.5 | 98.4 | 67.5 | 74.2 | 72 | 82.4 | 75.6 | 58.4 | 60.1 | 78.9 | 51.1 | 62.3 | 81.5 | 54.2 | 79 | 46.5 | 63.4 | 49.3 | 57.8 | –
8 | CO[C@H]1C[C@@H]2CC[C@@H](C)[C@@](O)(O2)C(=O)C(=O)N2CCCC[C@H]2C(=O)O[C@H]([C@H](C)C[C@@H]2CC[C@@H](OCCO)[C@H](OC)C2)CC(=O)[C@H](C)/C=C(\C)[C@@H](O)[C@@H](OC)C(=O)[C@H](C)C[C@H](C)/C=C/C=C/C=C/1C [everolimus] + c1cc(-c2cnn3cc(-c4ccc(OCCN5CCCCC5)cc4)cnc23)ccn1 [Dorsomorphin] (first compound 0.1 µM, partner dose 2 µM) | 33.8 | 71.6 | 85.8 | 57 | 66.5 | 79.1 | 60.3 | 62.9 | 94.8 | 100 | 50.8 | 75.6 | 81.5 | 68.5 | 87.8 | 75.8 | 53.2 | 81.5 | 83.1 | –
9 | CC(=O)O[C@@]12CO[C@@H]1C[C@H](O)[C@@]1(C)C(=O)[C@H](O)C3=C(C)[C@@H](OC(=O)[C@H](O)[C@@H](NC(=O)OC(C)(C)C)c4ccccc4)C[C@@](O)([C@@H](OC(=O)c4ccccc4)[C@H]21)C3(C)C [Docetaxel] + CCc1ccc(CCOc2ccc(CC3SC(=O)NC3=O)cc2)nc1 [pioglitazone] (first compound 0.0005 µM, partner dose 10 µM) | 15.3 | 52.6 | 40.8 | 44.2 | 79.5 | 42 | 45.7 | 22.1 | 27 | 63.9 | 13.2 | 22.2 | 53.3 | 47.5 | 69.9 | 71.2 | 46.1 | 31 | 45.7 | –
10 | Nc1ccn([C@@H]2O[C@H](CO)[C@@H](O)C2(F)F)c(=O)n1 [gemcitabine] + O=c1cc(-c2cccc3c2Sc2ccccc2S3)oc(N2CCOCC2)c1 [KU55933] (first compound 0.002 µM, partner dose 5 µM) | 51.1 | 60.5 | 47.2 | 68.4 | 104 | 70.9 | 84.8 | 51.1 | 72.3 | 84 | 83.6 | 94.5 | 121 | 76.7 | 105 | 93.1 | 89.7 | 77.4 | 83.3 | –
11 | Nc1ccn([C@@H]2O[C@H](CO)[C@@H](O)C2(F)F)c(=O)n1 [gemcitabine] + O=C(CCCCCCC(=O)Nc1ccccc1)NO [vorinostat] (first compound 0.002 µM, partner dose 0.4 µM) | 41.6 | 59.9 | 32.5 | – | 68.9 | 61.7 | – | 41.4 | 36.8 | 51.9 | 72.3 | – | 90.3 | 78.2 | 77.1 | 69.7 | 72.7 | 58.5 | 85.1 | 34.2
12 | CC(=O)c1c(C)c2cnc(Nc3ccc(N4CCNCC4)cn3)nc2n(C2CCCC2)c1=O [palbociclib] + CC(C)CCN1c2nc(Nc3cc(F)c(O)c(F)c3)ncc2N(C)C(=O)C1C [BID1870] (first compound 0.2 µM, partner dose 1 µM) | 47.4 | 64.7 | 68 | 68.7 | 91.3 | 67.3 | 68.4 | 44.4 | 81.1 | 44.4 | 31.8 | 49.7 | 62.1 | 44.3 | 88.1 | 44.7 | 59.5 | 22.6 | 42.1 | –
13 | CC(=O)O[C@@]12CO[C@@H]1C[C@H](O)[C@@]1(C)C(=O)[C@H](O)C3=C(C)[C@@H](OC(=O)[C@H](O)[C@@H](NC(=O)OC(C)(C)C)c4ccccc4)C[C@@](O)([C@@H](OC(=O)c4ccccc4)[C@H]21)C3(C)C [Docetaxel] + CCCCCCCCCCCC1=C(O)C(=O)C=C(O)C1=O [Embelin] (first compound 0.0005 µM, partner dose 6 µM) | 16.4 | 36.4 | 41.5 | 39.2 | 56.4 | 43.1 | 32.3 | 25.3 | 20.9 | 51.2 | 17.7 | 9.76 | 44.5 | 39.3 | 54.9 | 53.4 | 39.6 | 28.4 | 32.5 | –
14 | CC(=O)O[C@@]12CO[C@@H]1C[C@H](O)[C@@]1(C)C(=O)[C@H](O)C3=C(C)[C@@H](OC(=O)[C@H](O)[C@@H](NC(=O)OC(C)(C)C)c4ccccc4)C[C@@](O)([C@@H](OC(=O)c4ccccc4)[C@H]21)C3(C)C [Docetaxel] + CC(C)C[C@H](NC(=O)[C@H](Cc1ccccc1)NC(=O)c1cnccn1)B(O)O [Bortezomib] (first compound 0.0005 µM, partner dose 0.005 µM) | 1.7 | 10.5 | 13.8 | – | 9.14 | 20.9 | – | 16.3 | 3.55 | 16.1 | 25.7 | 18.5 | 24.2 | 24 | 75.3 | 49.4 | 23.4 | 21.6 | 21.9 | 19.5
15 | Nc1ncn([C@H]2C[C@H](O)[C@@H](CO)O2)c(=O)n1 [decitabine] + COc1ccc(COc2ccc(Cc3cnc(N)nc3N)cc2OC)cc1 [GW2580] (first compound 0.5 µM, partner dose 5 µM) | 70.6 | 63 | 80.8 | – | 86.9 | 72.4 | – | 57.8 | 83 | 72 | 79.2 | – | 124 | 59.6 | 91.1 | 60.2 | 74 | 67.4 | 95 | –
16 | CC(=O)O[C@@]12CO[C@@H]1C[C@H](O)[C@@]1(C)C(=O)[C@H](O)C3=C(C)[C@@H](OC(=O)[C@H](O)[C@@H](NC(=O)OC(C)(C)C)c4ccccc4)C[C@@](O)([C@@H](OC(=O)c4ccccc4)[C@H]21)C3(C)C [Docetaxel] + O=C(Nc1ccccc1)c1cc([N+](=O)[O-])ccc1Cl [GW9662] (first compound 0.0005 µM, partner dose 10 µM) | 10.8 | 50.8 | 55.3 | 44.1 | 58.2 | 40.1 | 50.6 | 17.4 | 24.2 | 46.8 | 6.48 | 18.6 | 50 | 46.7 | 72.5 | 69.9 | 37.5 | 36.7 | 34.7 | –
